Test results as given in the supplement of paper PMC8728848.
The other results are listed elsewhere or left out.

Experiments:
Test in all cases: glycan array binding signal (z-score within array); higher = stronger binding
Settings in all cases: glycan notation: IUPAC condensed, linker removed
[1] = molecular target: GlcNAc(b1-4)GlcNAc
Outline: (§1)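 Glycan array data were curated from 3228 arrays in the Consortium for Functional Glycomics database and kept only where the protein sequence was available. Glycan names were converted to IUPAC-condensed notation, and columns mapping to the same glycan were averaged. The binding signal is a within-array Z-score, averaged across arrays of the same protein sequence at different concentrations or buffers and across linkers. Negative Z-scores can be read as non-binding.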

[2] = molecular target: GlcNAc(b1-4)GlcNAc(b1-4)GlcNAc
Outline: as §1

[3] = molecular target: GlcNAc(b1-4)GlcNAc(b1-4)GlcNAc(b1-4)GlcNAc(b1-4)GlcNAc
Outline: as §1

[4] = molecular target: GlcNAc(b1-4)GlcNAc(b1-4)GlcNAc(b1-4)GlcNAc(b1-4)GlcNAc(b1-4)GlcNAc
Outline: as §1

[5] = molecular target: GlcNAc(b1-4)[GlcNAc(b1-6)]GalNAc
Outline: as §1

[6] = molecular target: GlcNAc(b1-6)Gal(b1-4)GlcNAc
Outline: as §1

[7] = molecular target: GlcNAc(b1-6)GalNAc
Outline: as §1

[8] = molecular target: GlcNAc3Prop(b1-4)GlcNAc
Outline: as §1

[9] = molecular target: GlcNAc6S(b1-3)Gal(b1-4)GlcNAc
Outline: as §1

[10] = molecular target: Kdn(a2-3)Gal(b1-3)GalNAc
Outline: as §1

[11] = molecular target: Kdn(a2-3)Gal(b1-3)GlcNAc
Outline: as §1

[12] = molecular target: Kdn(a2-3)Gal(b1-4)Glc
Outline: as §1

[13] = molecular target: Kdn(a2-3)Gal(b1-4)GlcNAc
Outline: as §1

[14] = molecular target: Kdn(a2-3)Gal(b1-4)[Fuc(a1-3)]GlcNAc
Outline: as §1

[15] = molecular target: Kdn(a2-6)Gal(b1-4)GlcNAc
Outline: as §1

[16] = molecular target: Man(a1-2)Man(a1-2)Man(a1-3)Man
Outline: as §1

[17] = molecular target: Man(a1-2)Man(a1-2)Man(a1-6)[Man(a1-3)]Man
Outline: as §1

[18] = molecular target: Man(a1-2)Man(a1-3)Man
Outline: as §1

[19] = molecular target: Man(a1-2)Man(a1-3)[Man(a1-2)Man(a1-6)]Man
Outline: as §1

[20] = molecular target: Man(a1-2)Man(a1-3)[Man(a1-2)Man(a1-6)]Man(a1-6)[Man(a1-2)Man(a1-2)Man(a1-3)]Man
Outline: as §1

[21] = molecular target: Man(a1-2)Man(a1-3)[Man(a1-2)Man(a1-6)]Man(a1-6)[Man(a1-2)Man(a1-2)Man(a1-3)]Man(b1-4)GlcNAc(b1-4)GlcNAc
Outline: as §1

[22] = molecular target: Man(a1-2)Man(a1-3)[Man(a1-6)]Man(a1-6)[Man(a1-2)Man(a1-3)]Man(b1-4)GlcNAc(b1-4)GlcNAc
Outline: as §1

[23] = molecular target: Man(a1-2)Man(a1-6)[Man(a1-3)]Man(a1-6)[Man(a1-2)Man(a1-2)Man(a1-3)]Man
Outline: as §1

[24] = molecular target: Man(a1-2)Man(a1-6)[Man(a1-3)]Man(a1-6)[Man(a1-2)Man(a1-2)Man(a1-3)]Man(b1-4)GlcNAc(b1-4)GlcNAc
Outline: as §1

[25] = molecular target: Man(a1-3)[Man(a1-6)]Man
Outline: as §1

[26] = molecular target: Man(a1-3)[Man(a1-6)]Man(a1-6)[Man(a1-2)Man(a1-3)]Man(b1-4)GlcNAc(b1-4)GlcNAc
Outline: as §1

[27] = molecular target: Man(a1-3)[Man(a1-6)]Man(a1-6)[Man(a1-3)]Man
Outline: as §1

[28] = molecular target: Man(a1-3)[Man(a1-6)]Man(a1-6)[Man(a1-3)]Man(b1-4)GlcNAc(b1-4)GlcNAc
Outline: as §1

[29] = molecular target: Man(a1-3)[Man(a1-6)]Man(b1-4)GlcNAc(b1-4)GlcNAc
Outline: as §1

[30] = molecular target: Man(a1-6)Man
Outline: as §1

[31] = molecular target: Man(b1-4)GlcNAc
Outline: as §1

[32] = molecular target: Neu5Ac(a2-3)Gal
Outline: as §1

[33] = molecular target: Neu5Ac(a2-3)Gal(b1-3)GalNAc
Outline: as §1

[34] = molecular target: Neu5Ac(a2-3)Gal(b1-3)GalNAc(b1-3)Gal(a1-4)Gal(b1-4)Glc
Outline: as §1

[35] = molecular target: Neu5Ac(a2-3)Gal(b1-3)GalNAc(b1-3)Gal(b1-4)GlcNAc
Outline: as §1

[36] = molecular target: Neu5Ac(a2-3)Gal(b1-3)GalNAc(b1-4)[Neu5Ac(a2-3)]Gal(b1-4)Glc
Outline: as §1

[37] = molecular target: Neu5Ac(a2-3)Gal(b1-3)GalNAc6S
Outline: as §1

[38] = molecular target: Neu5Ac(a2-3)Gal(b1-3)GlcNAc
Outline: as §1

[39] = molecular target: Neu5Ac(a2-3)Gal(b1-3)GlcNAc(b1-3)Gal(b1-3)GlcNAc
Outline: as §1

[40] = molecular target: Neu5Ac(a2-3)Gal(b1-3)GlcNAc6S
Outline: as §1

[41] = molecular target: Neu5Ac(a2-3)Gal(b1-3)[Fuc(a1-4)]GlcNAc
Outline: as §1

[42] = molecular target: Neu5Ac(a2-3)Gal(b1-3)[Fuc(a1-4)]GlcNAc(b1-3)Gal(b1-3)[Fuc(a1-4)]GlcNAc
Outline: as §1

[43] = molecular target: Neu5Ac(a2-3)Gal(b1-3)[Fuc(a1-4)]GlcNAc(b1-3)Gal(b1-4)[Fuc(a1-3)]GlcNAc
Outline: as §1

[44] = molecular target: Neu5Ac(a2-3)Gal(b1-3)[Neu5Ac(a2-3)Gal(b1-4)]GlcNAc
Outline: as §1

[45] = molecular target: Neu5Ac(a2-3)Gal(b1-3)[Neu5Ac(a2-6)]GalNAc
Outline: as §1

[46] = molecular target: Neu5Ac(a2-3)Gal(b1-4)Glc
Outline: as §1

[47] = molecular target: Neu5Ac(a2-3)Gal(b1-4)GlcNAc
Outline: as §1

[48] = molecular target: Neu5Ac(a2-3)Gal(b1-4)GlcNAc(b1-2)Man(a1-3)[GlcNAc(b1-2)Man(b1-4)GlcNAc(b1-2)Man(a1-6)]Man(b1-4)GlcNAc(b1-4)GlcNAc
Outline: as §1

[49] = molecular target: Neu5Ac(a2-3)Gal(b1-4)GlcNAc(b1-2)Man(a1-3)[Neu5Ac(a2-6)Gal(b1-4)GlcNAc(b1-2)Man(a1-6)]Man(b1-4)GlcNAc(b1-4)GlcNAc
Outline: as §1

[50] = molecular target: Neu5Ac(a2-3)Gal(b1-4)GlcNAc(b1-3)Gal(b1-3)GlcNAc
Outline: as §1

[51] = molecular target: Neu5Ac(a2-3)Gal(b1-4)GlcNAc(b1-3)Gal(b1-4)GlcNAc
Outline: as §1

[52] = molecular target: Neu5Ac(a2-3)Gal(b1-4)GlcNAc(b1-3)Gal(b1-4)GlcNAc(b1-3)Gal(b1-4)GlcNAc
Outline: as §1

[53] = molecular target: Neu5Ac(a2-3)Gal(b1-4)GlcNAc(b1-3)Gal(b1-4)[Fuc(a1-3)]GlcNAc
Outline: as §1

[54] = molecular target: Neu5Ac(a2-3)Gal(b1-4)GlcNAc(b1-3)GalNAc
Outline: as §1

[55] = molecular target: Neu5Ac(a2-3)Gal(b1-4)GlcNAc(b1-6)[Gal(b1-3)]GalNAc
Outline: as §1

[56] = molecular target: Neu5Ac(a2-3)Gal(b1-4)GlcNAc(b1-6)[Neu5Ac(a2-3)Gal(b1-3)]GalNAc
Outline: as §1

[57] = molecular target: Neu5Ac(a2-3)Gal(b1-4)GlcNAc6S
Outline: as §1

B1: DC-ASPGR (Homo sapiens), CLC10_HUMAN (protein)
chain: LDQNSKFQRDLVTLRTDFSNFTSNTVAEIQALTSQGSSLEETIASLKAEVEGFKQERQAVHSEMLLRVQQLVQDLKKLTCQVATLNNNASTEGTCCPVNWVEHQDSCYWFSHSGMSWAEAEKYCQLKNAHLVVINSREEQNFVQKYLGSAYTWMGLSDPEGAWKWVDGTDYATGFQNWKPGQPDDWQGHGLGGGEDCAHFHPDGRWNDDVCQRPYHWVCEAGLGQTSQESHVEPKSCDKTHTCPPCPAPELLGGPSVFLFPPKPKDTLMISRTPEVTCVVVDVSHEDPEVKFNWYVDGVEVHNAKTKPREEQFNSTYRVVSVLTVLHQDWLNGKEYKCKVSNKGLPSSIEKTISKAKGQPREPQVYTLPPSQEEMTKNQVSLTCLVKGFYPSDIAVEWESNGQPENNYKTTPPVLDSDGSFFLYSRLTVDKSRWQEGNVFSCSVMHEALHNHYTQK
For B1, the “glycan array binding signal (z-score)” value [1] was -0.21, the “glycan array binding signal (z-score)” value [2] was -0.071 and the “glycan array binding signal (z-score)” value [3] was -0.149. The “glycan array binding signal (z-score)” value [4] was -0.185, the “glycan array binding signal (z-score)” value [5] was -0.194 and the “glycan array binding signal (z-score)” value [6] was -0.228. The “glycan array binding signal (z-score)” value [7] was 4.28, the “glycan array binding signal (z-score)” value [8] was -0.152 and the “glycan array binding signal (z-score)” value [9] was -0.165. For the same binder, the “glycan array binding signal (z-score)” value [10] was -0.254, the “glycan array binding signal (z-score)” value [11] was -0.274 and the “glycan array binding signal (z-score)” value [12] was -0.158. For the same binder, the “glycan array binding signal (z-score)” value [13] was -0.292, the “glycan array binding signal (z-score)” value [14] was -0.231 and the “glycan array binding signal (z-score)” value [15] was -0.144. The “glycan array binding signal (z-score)” value [16] was -0.239, the “glycan array binding signal (z-score)” value [17] was -0.232 and the “glycan array binding signal (z-score)” value [18] was -0.166. The “glycan array binding signal (z-score)” value [19] was -0.26, the “glycan array binding signal (z-score)” value [20] was -0.265 and the “glycan array binding signal (z-score)” value [21] was -0.291. The “glycan array binding signal (z-score)” value [22] was -0.204, the “glycan array binding signal (z-score)” value [23] was -0.06 and the “glycan array binding signal (z-score)” value [24] was -0.246. The “glycan array binding signal (z-score)” value [25] was -0.187, the “glycan array binding signal (z-score)” value [26] was -0.242 and the “glycan array binding signal (z-score)” value [27] was -0.253. For the same binder, the “glycan array binding signal (z-score)” value [28] was -0.292, the “glycan array binding signal (z-score)” value [29] was -0.221 and the “glycan array binding signal (z-score)” value [30] was -0.174. For the same binder, the “glycan array binding signal (z-score)” value [31] was -0.313, the “glycan array binding signal (z-score)” value [32] was -0.279 and the “glycan array binding signal (z-score)” value [33] was -0.259. For the same binder, the “glycan array binding signal (z-score)” value [34] was -0.165, the “glycan array binding signal (z-score)” value [35] was -0.067 and the “glycan array binding signal (z-score)” value [36] was -0.161. The “glycan array binding signal (z-score)” value [37] was -0.227, the “glycan array binding signal (z-score)” value [38] was -0.274 and the “glycan array binding signal (z-score)” value [39] was -0.155. The “glycan array binding signal (z-score)” value [40] was -0.24, the “glycan array binding signal (z-score)” value [41] was -0.23 and the “glycan array binding signal (z-score)” value [42] was 0.403. For the same binder, the “glycan array binding signal (z-score)” value [43] was 0.282, the “glycan array binding signal (z-score)” value [44] was -0.172 and the “glycan array binding signal (z-score)” value [45] was 0.1. The “glycan array binding signal (z-score)” value [46] was -0.185, the “glycan array binding signal (z-score)” value [47] was -0.156 and the “glycan array binding signal (z-score)” value [48] was 0.699. For the same binder, the “glycan array binding signal (z-score)” value [49] was 0.413, the “glycan array binding signal (z-score)” value [50] was -0.106 and the “glycan array binding signal (z-score)” value [51] was -0.328. For the same binder, the “glycan array binding signal (z-score)” value [52] was -0.292, the “glycan array binding signal (z-score)” value [53] was -0.152 and the “glycan array binding signal (z-score)” value [54] was -0.18. For the same binder, the “glycan array binding signal (z-score)” value [55] was -0.295, the “glycan array binding signal (z-score)” value [56] was -0.165 and the “glycan array binding signal (z-score)” value [57] was -0.053.
